The list shows a part of the results. Many values rest on one well or one pass, so single values are uncertain.

The results in this text go back to the supplement of paper PMC4604168 (melanoma cell lines).

Test systems include WM115; WM1716; WM1745; WM3526; WM3619; WM451Lu.
Assay in all cases: cell count relative to DMSO control; melanoma cells; higher = more viable cells
Holding throughout (conditions): library dose: low library concentration; 72 h
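Note: cell number obtained by counting DAPI-stained nuclei in high-throughput microscope images with image analysis software, screen run in 1,536-well plates.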

Turning to `CC1(C)CCC(c2ccc(Cl)cc2)=C(CN2CCN(c3ccc(C(=O)NS(=O)(=O)c4ccc(N[C@H](CCN5CCOCC5)CSc5ccccc5)c(S(=O)(=O)C(F)(F)F)c4)cc3)CC2)C1` + CCCCCCCCc1ccc(CCC(N)(CO)CO)cc1 [fingolimod] (first compound 0.4 µM, partner dose 2 µM), the cell count with WM115 was found to be 80.8%; with WM1716 it was 71.8%; in the assay with WM1745 it was 5.93%; with WM3526, 71.7%; in the assay with WM3619 it was 80.1%; in the assay with WM451Lu, 92.6%.

For `O=C(/C=C/c1cccnc1)NCCCCC1CCN(C(=O)c2ccccc2)CC1` + CN(C)S(=O)(=O)c1ccc2c(c1)/C(=C/c1cc3c([nH]1)CCCC3)C(=O)N2 [SU6656] (first compound 0.01 µM, partner dose 0.4 µM), the cell count in the assay on WM115 came out at 85.6%; with WM1716, 95.8%; in the assay on WM1745, 97.6%; with WM3526, 97%; in the assay on WM3619, 93.6%; in the assay with WM451Lu, 75.5%.

On to `CC1(C)CCC(c2ccc(Cl)cc2)=C(CN2CCN(c3ccc(C(=O)NS(=O)(=O)c4ccc(N[C@H](CCN5CCOCC5)CSc5ccccc5)c(S(=O)(=O)C(F)(F)F)c4)cc3)CC2)C1` + Cc1cc([N+](=O)[O-])ccc1NS(=O)(=O)c1cc(Cl)ccc1Cl [FH535] (first compound 0.4 µM, partner dose 1 µM), for which the cell count in the assay on WM115 worked out at 60%; in the assay on WM1716 it was 66.6%; in the assay with WM1745, 16.8%; with WM3526 it was 84.3%; with WM3619 it was 94.2%; in the assay on WM451Lu, 68.1%.

With `Cc1ccc(Nc2nccc(N(C)c3ccc4c(C)n(C)nc4c3)n2)cc1S(N)(=O)=O` [Pazopanib] + Cn1cc(/C=C2\C(=O)Nc3cccnc32)c2ccccc21 [GW441756] (first compound 0.4 µM, partner dose 0.4 µM), the cell count with WM115 came out at 102%; in the assay on WM1716 it was 99.6%; in the assay on WM1745, 98.1%; in the assay with WM3526, 92.9%; in the assay with WM3619, 84.2%; in the assay on WM451Lu, 94.9%.

For `O=C(/C=C/c1cccnc1)NCCCCC1CCN(C(=O)c2ccccc2)CC1` + O=C(Nc1ccccc1)c1cc([N+](=O)[O-])ccc1Cl [GW9662] (first compound 0.01 µM, partner dose 2 µM), the cell count came out at 94% in the assay on WM115; 94.9% in the assay on WM1716; 108% with WM1745; 106% with WM3526; 63.1% in the assay on WM3619; 117% in the assay on WM451Lu.

Take `Cc1ccc(Nc2nccc(N(C)c3ccc4c(C)n(C)nc4c3)n2)cc1S(N)(=O)=O` [Pazopanib] + CS(=O)(=O)c1ccc(C(=O)Nc2ccc(Cl)c(-c3ccccn3)c2)c(Cl)c1 [vismodegib] (first compound 0.4 µM, partner dose 1 µM): the cell count in the assay on WM115 turned out to be 100%; in the assay with WM1716, 82.9%; in the assay with WM1745, 105%; with WM3526 it was 94.6%; in the assay with WM3619, 91.9%; with WM451Lu, 81.5%.

`Cc1ccc(Nc2nccc(N(C)c3ccc4c(C)n(C)nc4c3)n2)cc1S(N)(=O)=O` [Pazopanib] + Cc1ccc(NC(=O)c2cccc(N(C)C)c2)cc1NC(=O)c1ccc(O)cc1 [ZM336372] (first compound 0.4 µM, partner dose 2 µM): the cell count was determined as 91% with WM115; 102% in the assay with WM1716; 79.4% in the assay with WM1745; 101% in the assay on WM3526; 114% in the assay with WM3619; 119% in the assay on WM451Lu.

With `O=C(/C=C/c1cccnc1)NCCCCC1CCN(C(=O)c2ccccc2)CC1` + N#Cc1c(O)c2c(-c3ccc(-c4ccccc4O)cc3)csc2[nH]c1=O [A769662] (first compound 0.01 µM, partner dose 2 µM), the cell count in the assay with WM115 is 91.3%; in the assay on WM1716, 90.2%; in the assay on WM1745, 110%; in the assay on WM3526, 114%; with WM3619, 86.2%; with WM451Lu, 109%.

With `O=C(/C=C/c1cccnc1)NCCCCC1CCN(C(=O)c2ccccc2)CC1` + CCN(CC)CCNC(=O)c1c(C)[nH]c(/C=C2\C(=O)Nc3ccc(F)cc32)c1C [sunitinib] (first compound 0.01 µM, partner dose 0.4 µM), the cell count is 100% with WM115; 114% in the assay with WM1716; 94.3% with WM1745; 76.2% in the assay on WM3526; 76.6% with WM3619; 103% in the assay on WM451Lu.

For the compound `CC1(C)CCC(c2ccc(Cl)cc2)=C(CN2CCN(c3ccc(C(=O)NS(=O)(=O)c4ccc(N[C@H](CCN5CCOCC5)CSc5ccccc5)c(S(=O)(=O)C(F)(F)F)c4)cc3)CC2)C1` + CCCCCCCCCCCC1=C(O)C(=O)C=C(O)C1=O [Embelin] (first compound 0.4 µM, partner dose 1.2 µM), the cell count in the assay with WM115 came to 78%; with WM1716 it was 63.6%; in the assay on WM1745 it was 14.8%; in the assay with WM3526, 73.1%; with WM3619, 88.4%; with WM451Lu, 98.6%.

On to `Cc1ccc(Nc2nccc(N(C)c3ccc4c(C)n(C)nc4c3)n2)cc1S(N)(=O)=O` [Pazopanib] + CCc1ccc(CCOc2ccc(CC3SC(=O)NC3=O)cc2)nc1 [pioglitazone] (first compound 0.4 µM, partner dose 2 µM), for which the cell count with WM115 came out at 95.2%; with WM1716, 83.2%; in the assay with WM1745 it was 83.8%; with WM3526, 87%; with WM3619 it was 87.4%; with WM451Lu it was 96%.

Consider `O=C(/C=C/c1cccnc1)NCCCCC1CCN(C(=O)c2ccccc2)CC1` + CN1CCN(c2ccc3nc(-c4c(N)c5c(F)cccc5[nH]c4=O)[nH]c3c2)CC1 [Dovitinib] (first compound 0.01 µM, partner dose 0.1 µM), for which the cell count in the assay with WM115 came to 96.4%; in the assay on WM1716, 87.9%; in the assay with WM1745, 89.3%; in the assay with WM3526 it was 106%; in the assay on WM3619 it was 83.7%; with WM451Lu, 109%.
